Each value is the number of isolates with that result; steps that no isolate showed are left empty. MIC by broth microdilution (CLSI, 0.25-128 µg/mL, 18 h, 37 °C) of Gram-negative wastewater isolates picked on carbapenem-selective plates; higher = less susceptible. No active / inactive call. Isolates were selected for resistance.
Key:
Test in all cases: Isolates counted by MIC; Broth microdilution (CLSI), cation-adjusted Mueller-Hinton broth, two-fold steps from 0.25 to 128 µg/mL, 18 h at 37 °C.
[1] = tested on: Klebsiella pneumoniae with no carbapenemase gene listed (17 isolates)
[2] = tested on: Klebsiella oxytoca with no carbapenemase gene listed (21 isolates)
[3] = tested on: Enterobacter cloacae with no carbapenemase gene listed (25 isolates)
[4] = tested on: Enterobacter asburiae with no carbapenemase gene listed (16 isolates)
[5] = tested on: Enterobacter bugandensis with no carbapenemase gene listed (40 isolates)

Row | Compound | isolate count ([1]; MIC: 4 µg/mL) | isolate count ([1]; MIC: 8 µg/mL) | isolate count ([1]; MIC: 16 µg/mL) | isolate count ([1]; MIC: 32 µg/mL) | isolate count ([2]; MIC: 4 µg/mL) | isolate count ([2]; MIC: 8 µg/mL) | isolate count ([2]; MIC: 16 µg/mL) | isolate count ([2]; MIC: 32 µg/mL) | isolate count ([3]; MIC: 4 µg/mL) | isolate count ([3]; MIC: 8 µg/mL) | isolate count ([3]; MIC: 16 µg/mL) | isolate count ([3]; MIC: 32 µg/mL) | isolate count ([3]; MIC: 64 µg/mL) | isolate count ([4]; MIC: 4 µg/mL) | isolate count ([4]; MIC: 8 µg/mL) | isolate count ([4]; MIC: 16 µg/mL) | isolate count ([4]; MIC: 32 µg/mL) | isolate count ([5]; MIC: 4 µg/mL) | isolate count ([5]; MIC: 8 µg/mL) | isolate count ([5]; MIC: 16 µg/mL) | isolate count ([5]; MIC: 32 µg/mL) | isolate count ([1]; MIC: 64 µg/mL) | isolate count ([2]; MIC: 64 µg/mL) | isolate count ([4]; MIC: 64 µg/mL) | isolate count ([5]; MIC: 64 µg/mL)
1 | C[C@@H](O)[C@H]1C(=O)N2C(C(=O)O)=C(S[C@@H]3CN[C@H](C(=O)Nc4cccc(C(=O)O)c4)C3)[C@H](C)[C@H]12 [Ertapenem] | 7 | 3 | 5 | 2 | 4 | 4 | 12 | 1 | 9 | 4 | 8 | 3 | 1 | 1 | 5 | 7 | 3 | 1 | 7 | 20 | 12 | – | – | – | –
2 | C[C@@H](O)[C@H]1C(=O)N2C(C(=O)O)=C(SCCNC=N)C[C@H]12 [Imipenem] | 3 | 7 | 5 | 1 | – | 12 | 8 | – | 5 | 14 | 3 | 1 | 2 | 6 | 7 | 2 | – | 8 | 20 | 4 | 3 | 1 | 1 | 1 | 5
3 | C[C@@H](O)[C@H]1C(=O)N2C(C(=O)O)=C(S[C@@H]3CN[C@H](C(=O)N(C)C)C3)[C@H](C)[C@H]12 [Meropenem] | – | 4 | 6 | 5 | – | – | 9 | 11 | – | 4 | 13 | 6 | 2 | – | 4 | 5 | 6 | – | 1 | 23 | 7 | 2 | 1 | 1 | 9

From the supplement of paper PMC10886265
